The whole screen tested about 94,000 compounds, of which about 6,200 (6.6%) were called active. The inconclusive results got no clear call from the source; some entries with a clear call stand among them for comparison. The call rests on the fitted dose curve; in most records, active means well fitted inhibition curve with a large enough effect; inconclusive means small, poorly fitted or top-dose-only effect; inactive means flat fitted curve, though single readings scatter. Where the call is inconclusive, the potency comes from a doubtful curve fit.
test: Cytotoxic Profiling in HEK 293 Cell Line of Diverse Libraries Using Quantitative High-Throughput Screening; conditions: HEK 293 viability, ATP luminescence (CellTiter-Glo), 48-72 h; series mostly up to 115 µM; further: nearly all actives have a fitted effect of over 60% in size
Outline: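 Cytotoxicity was scored by loss of ATP-coupled luminescence (CellTiter-Glo) in HEK 293 cells. Compound treatment ran 48 or 72 hr at 37 degree Celsius, 5% CO2, 95% humidity.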
Potency means the concentration at half of the fitted maximal effect; tags describe the fitted curve by direction and shape.

SMILES	Potency
O=c1c2nc(OCc3ccc(F)cc3)ccc2ncn1Cc1ccccn1	inconclusive: 79.4 µM [inhibitor, partial curve, poor fit]
COc1ccc(-c2onc(C)c2C(=O)N2CCC(Cc3ccc(F)cc3)CC2)cc1	inconclusive: 39.8 µM [inhibitor, full curve, poor fit]
CCOc1cc(=O)n2c(c1C(=O)Nc1cc(Cl)ccc1Cl)CCCC2	inactive
COc1ccc(-c2nc(C3CC(=O)N(Cc4ccccc4OC)C3)no2)c(C)c1 (stereo not drawn)	inconclusive: 31.6 µM [inhibitor, partial curve, poor fit]
COc1ccc(F)cc1-c1cccc(C(=O)NCCNC(=O)N(C)C)c1	inconclusive: 79.4 µM [inhibitor, partial curve, poor fit]
CCOc1ccc(CN2CCN(Cc3nc4ccccc4[nH]3)CC2CCO)cc1 (stereo not drawn)	inactive
Cc1ccc(F)cc1S(=O)(=O)N[C@@H]1CN(c2ncccn2)C[C@H]1CN(C)C	inconclusive: 89.1 µM [inhibitor, single point]
COC1CCN(c2cc(-c3cccc(C(F)(F)F)c3)nc3c(C)noc23)CC1	inconclusive: 63.1 µM [inhibitor, full curve]
O=C(Nc1cccc(-c2ccc(F)cc2)c1)C1CCCN1C(=O)C1CCOCC1 (stereo not drawn)	inactive
COCCCNC(=O)N1CCCC(COc2ccccc2C(=O)N2CCCCC2)C1 (stereo not drawn)	inactive
Clc1cccc(-c2ccc(CNc3ncncn3)o2)c1	active: 31.6 µM
CCOc1ccc(NC(=O)C2CCN(c3cnn(Cc4ccccc4)c(=O)c3)C2)cc1 (stereo not drawn)	inactive
N#Cc1cccc(-c2ccnc(N[C@H]3CO[C@H]4[C@@H]3OC[C@@H]4NC(=O)c3ccccc3)n2)c1	inconclusive: 126 µM [inhibitor, single point]
CC(C)NC(=O)NC[C@H]1COCc2nc3cc(C(F)(F)F)ccc3n21	inconclusive: 70.8 µM [inhibitor, partial curve, poor fit]
CNC(=O)c1cc(C2CC2)nc2c1c(C1CCCN(C(=O)c3ccc(C(F)(F)F)cc3)C1)nn2C (stereo not drawn)	inconclusive: 56.2 µM [inhibitor, partial curve, poor fit]
Cc1cccc(NC(=O)N2C[C@@H](Oc3cccnc3)C[C@@H]2C(=O)N2CCOCC2)c1	inactive
CN1[C@@H](CCC(=O)NCc2cccs2)CNC(=O)[C@@H]2[C@H]1CCN2CC(C)(C)C	inactive
Cc1ccccc1[C@H]1C[C@@H](O)[C@@H](O)[C@@H]1NC(=O)c1nc2ccccc2s1	inconclusive: 112 µM [inhibitor, partial curve]
CCOC(=O)C1C(=O)NCC12CCN(C(=O)c1ccc(C(C)(C)C)cc1)CC2 (stereo not drawn)	inconclusive: 39.8 µM [inhibitor, partial curve, poor fit]
COCCOc1ccc2c(n1)CCN(C(=O)Cc1cccc(OC)c1)C2	inactive
COCCN1CCOC2(CCN(Cc3ccc(C(C)C)cc3)CC2)C1=O	inconclusive: 100 µM [inhibitor, partial curve, poor fit]

SMILES	Potency
CN(CCCN1CCCCCC1)c1nc(-c2ccncc2)nc2c1cnn2C	inconclusive: 31.6 µM [inhibitor, full curve, poor fit]
CC(=O)Nc1ccc(S(=O)(=O)N[C@H]2CO[C@H]3[C@@H]2OC[C@@H]3Nc2nccc(-c3cccc(F)c3)n2)cc1	active: 15.8 µM
Cc1ccc(NC(=O)c2ccc3oc(-c4ccccn4)nc3c2)cc1	inconclusive: 50.1 µM [inhibitor, partial curve, poor fit]
COc1cccc(NC(=O)Cc2c[nH]c3ncc(-c4cccnc4OC)cc23)c1	active: 50.1 µM
CCCN1C(=O)Cc2cc(C(=O)NCc3ccc(C)c(C)c3)ccc21	inconclusive: 89.1 µM [inhibitor, single point]
CC1=C(C(=O)OC(C)C)C(c2ccccc2Cl)CC(=O)N1Cc1cccc(F)c1 (stereo not drawn)	active: 31.6 µM
O=C(Nc1ccccc1)c1nc2c(o1)CCN(Cc1ccc(F)c(Cl)c1)CC2	inconclusive: 25.1 µM [inhibitor, full curve]
O=C(Nc1cccc(C(F)(F)F)c1)N[C@H]1[C@H](O)[C@@H](N2CCN(c3ccccc3)CC2)[C@@H]2OC[C@H]1O2	inconclusive: 44.7 µM [inhibitor, partial curve, poor fit]
OC[C@@H]1CNC[C@H]1C1CCN(Cc2cccc(C(F)(F)F)c2)CC1	active: 79.4 µM
CC(C)NC(=O)C1CCC(=O)N1C1CCN(C(=O)c2cc(F)cc(F)c2)CC1 (stereo not drawn)	inactive
CCOc1ccc(C(=O)NC2CCCN(c3cc(-c4ccccc4)[nH]n3)C2)cc1OCC (stereo not drawn)	active: 31.6 µM
COc1cccc(CCC(=O)N(C)C2CCc3nn(CC4CC4)c(=O)n3CC2)c1 (stereo not drawn)	inactive
O=C(Nc1ccc2ncnc(N3CCCCC3)c2c1)c1ccc(F)cc1F	inconclusive: 44.7 µM [inhibitor, partial curve, poor fit]
O=C(NCc1cccc(C(F)(F)F)c1)c1ccc2nnc(C3CCCC3)n2c1	active: 44.7 µM
COc1ccc(CN2C[C@H]3CN(Cc4ccccc4)CCN3C2=O)cc1	inconclusive: 79.4 µM [inhibitor, partial curve, poor fit]
O=C(NC1CCN(c2ccnc3ccnn23)C1)c1cncc(Br)c1 (stereo not drawn)	inconclusive: 44.7 µM [inhibitor, partial curve, poor fit]
O=C(Cc1ccccc1Cl)N1CCC[C@H]1c1nc(-c2ccccc2)no1	inconclusive: 89.1 µM [inhibitor, single point]
Cc1ccc(-n2nc(C)c([C@@H]3C=C[C@@H](NC(=O)c4cccs4)C3)c2C)cc1Cl	inconclusive: 79.4 µM [inhibitor, partial curve, poor fit]
CCC1C(=O)NCCN1Cc1cn(-c2cccc(F)c2)nc1-c1ccc(C)o1 (stereo not drawn)	inconclusive: 89.1 µM [inhibitor, single point]
Cn1cc(CC(=O)N2CCCc3ncc(C(=O)Nc4cccc(F)c4)cc32)c2ccccc21	inconclusive: 50.1 µM [inhibitor, partial curve, poor fit]
Cc1cc(=O)n(CC(=O)Nc2ccc(C)c(Cl)c2)c(N2CCOCC2)n1	inconclusive: 11.2 µM [inhibitor, full curve, poor fit]

SMILES	Potency
Cc1ccc(S(=O)(=O)N2CC(c3noc(-c4cccnc4)n3)C2)cc1Cl	inconclusive: 35.5 µM [inhibitor, partial curve, poor fit]
COc1ccc(Cl)cc1-c1ccc2c(c1)C(=O)N1CCN(C(=O)COc3ccccc3)C[C@@H]1C(=O)N2	inconclusive: 50.1 µM [inhibitor, partial curve, poor fit]
C=CCN(Cc1cccc(OCC(N)=O)c1)Cc1ccccc1C	inconclusive: 50.1 µM [inhibitor, partial curve, poor fit]
Cc1ccc(C2=NC3(CCN(C(=O)c4cc(Cl)ccc4F)CC3)ON2)cc1	inconclusive: 56.2 µM [inhibitor, partial curve, poor fit]
CCCN1C(=O)NC(CC(=O)N2CCC(O)(c3ccc(C)cn3)CC2)C1=O (stereo not drawn)	inactive
Cc1cccc(C(=O)N2CCCCCC2c2nnc(-c3ccccc3)o2)c1 (stereo not drawn)	inconclusive: 56.2 µM [inhibitor, partial curve, poor fit]
O=C(CN1C(=O)NC(c2ccc(Cl)cc2)C2=C1COC2=O)Nc1ccc2c(c1)OCO2 (stereo not drawn)	inconclusive: 28.2 µM [inhibitor, full curve]
COc1cc(-c2ccnc3nc(C4CC4)nn23)cc(OC)c1OC	inconclusive: 79.4 µM [inhibitor, single point]
Cc1nn(Cc2ccccc2)c(C)c1[C@@H]1C=C[C@@H](NS(C)(=O)=O)C1	inconclusive: 126 µM [inhibitor, single point]
Cc1cc2nc3n(c(=O)c2n1CC(=O)Nc1cccc(C#N)c1)CCCCC3	inconclusive: 50.1 µM [inhibitor, partial curve, poor fit]
CS(=O)(=O)NC1CCCN(c2cc(N3CCCC3)ncn2)C1 (stereo not drawn)	inactive
CN(Cc1cccnc1)C(=O)[C@H]1C[C@@H](C(=O)O)N(C)[C@H]1c1cccc(F)c1F	inactive
CNC(=O)c1cc(C)nc2onc(C3CCN(C(=O)Nc4ccccc4)C3)c12 (stereo not drawn)	inactive
O=C(NC1CCN(c2ccc3nnc(-c4ccccc4)n3n2)CC1)c1ccc(Cl)cc1	inconclusive: 3.55 µM [inhibitor, full curve, poor fit]
CN1CCCC1COc1ccc2c(n1)CN(Cc1ccc(C(F)(F)F)cc1)C(=O)CO2 (stereo not drawn)	inconclusive: 112 µM [inhibitor, partial curve]
C#CCNC(=O)C1CCCN1c1nccc(Nc2ccc(C)cc2)n1 (stereo not drawn)	inconclusive: 35.5 µM [inhibitor, partial curve, poor fit]
O=C(NCc1ccnc2[nH]ccc12)c1cccc(Cl)c1	inactive
COc1ccccc1-c1nc(C2CC(=O)N(c3ccc(C)cc3)C2)no1 (stereo not drawn)	inconclusive: 56.2 µM [inhibitor, partial curve, poor fit]
c1ccc(-c2ccccc2CN[C@@H]2C[C@@H]3CO[C@H](c4ccccc4)C[C@@H]3C2)cc1	inconclusive: 39.8 µM [inhibitor, full curve, poor fit]
O=C(NC1CCOCC1)C1CCCCN1Cc1ccc(-c2cccs2)cc1 (stereo not drawn)	active: 44.7 µM
COc1cc(Cl)ccc1C(=O)N1CCN(C(=O)c2nnn3c2COC(c2ccccc2)C3)CC1 (stereo not drawn)	inconclusive: 50.1 µM [inhibitor, partial curve, poor fit]

From PubChem BioAssay AID1345083 (National Center for Advancing Translational Sciences (NCATS), 2018)
